Data taken from article PMC12136788.
Some of the results follow.

B1: chr11:87794392:87794393:-_ENSMUSG00000020483_ENSMUST00000020775|mus_hu|FALSE|FALSE (ssRNA)
RNA: GGGAGUUCUACAGUCCGACGAUCCCCCACCCUCCGCCCCAAGCCAUAGAAUCACAGUUCAGUGGAAUAUUCUCCCUGGUACUAGAUCAAUCCCUCCACCUUCCUUCCUACCCCUUUUUCCUUGACAAUCCCAACACUGUCCCCCAACAGAGGAUUGAGCAUCA
B2: 65616592_65618342_1538_CDS_ENSMUSG00000037890_ENSMUST00000041892|mouse|control|control (ssRNA)
RNA: GGGAGUUCUACAGUCCGACGAUCAUGCCGGUAAUCAUUAACGAACUGCCAGUCUUCGAUGAAGAAAUAGUGAAUGAUGCCAGUAUCAGUUCCGUAGAUGAGGAAAUCACUAGUUAGGGCGUGGCAUAAAAUCCGGCACUUAUCCAACAGAGGAUUGAGCAUCA
B3: chr4:101285476:101285477:+_ENSMUSG00000028528_ENSMUST00000094953|mus_hu|FALSE|FALSE (ssRNA)
RNA: GGGAGUUCUACAGUCCGACGAUCGAGAGGCUUGAAGUGAGGGCGGUAGGGCUUGUCUGCCAGUAGGUCACACAUAUAGCCCAGGUAUCUCCUAUGGGAUGGUGAAAGUCCAAUUCCUGGUCGCUUUGCAUAUAGCAAUCGAAUCAACAGAGGAUUGAGCAUCA
B4: 119660307_119660427_2552_CDS_ENSG00000150961_ENST00000280551|human|control|control (ssRNA)
RNA: GGGAGUUCUACAGUCCGACGAUCCUUGGCAAAGAAGUUGAUAAGAGCAUCUGUCUCACAGCUCUUAUAAAGAUCAGCUAGCUGAGAGCUGCAGUUUAAGCCAAGAUUGUGAAUCCGAAGUCUUCUUUGACCACUGAUUGUCGUCAACAGAGGAUUGAGCAUCA
B5: chr7:125341739:125341740:-_ENSMUSG00000030655_ENSMUST00000032891|mus_hu|FALSE|FALSE (ssRNA)
RNA: GGGAGUUCUACAGUCCGACGAUCUCUGUACAGAACAUCUGUUACAUAUGCCUCAGUAAUUGGAGGACCCCGAAUUGGGCUGAAGCGUUCCCCAAUGCUCCUCACCACAGUACUAAAUACCCGGAGAAGUGCAGCCAGCUUUGGCAACAGAGGAUUGAGCAUCA
B6: chr1:29069439:29069440:+_ENSG00000198492_ENST00000541996|hu_mus|motif|central (ssRNA)
RNA: GGGAGUUCUACAGUCCGACGAUCGCUGGUUUUGGAGGAGCAAUAGUAGCUGGAGGCAAACUGCUAGAAGCCACAAUGUUACGGGUGAUGGACCCACUACCAACAGCAGAGCCUACAACUUUUGGAACACUGCUUGCAACUUCUCAACAGAGGAUUGAGCAUCA
B7: 79860198_79860318_120_CDS_ENSG00000163291_ENST00000515853|human|control|control (ssRNA)
RNA: GGGAGUUCUACAGUCCGACGAUCGAUACACAGCCUGGACGGCAGGUAGGCCCGGUAGCCGUCGGUGAUGUACGGGUUGUCCUUGAGGGACCCGGGGAUCUGCUCGUAGGUGUACAGGCGGAUGCCACGGGGCACCAGGACCGGCAACAGAGGAUUGAGCAUCA
B8: chr1:130485734:130485735:-_ENSMUSG00000045382_ENSMUST00000052172|mus_mus|mus_mus_mus_hu_False|68_88 (ssRNA)
RNA: GGGAGUUCUACAGUCCGACGAUCGAUGAAGGAGUCGAUGCUGAUCCCCACAUAAUAAGGCAGCCAACAGGCAAAGAAAGCCAGGAUGAGGAUGACUGUGGUCUUGAGGGCCUUGCGCUUCUGGUGGCCCUUGGAGUGUGACAGCAACAGAGGAUUGAGCAUCA
B9: chr16:94651144:94651145:+_ENSMUSG00000040785_ENSMUST00000117648|mus_hu|mus_mus_mus_hu_True|98_108 (ssRNA)
RNA: GGGAGUUCUACAGUCCGACGAUCAUUCUCUUGGAUCAAGUGACCGAUAACAUAGUCCACUGCUUCAUUUAGAAAAUUUCUGCUAGAAAAACAGGUUGUAUAGUCUUCUGUGCUCAAAACUUUCCAAGAAAGCAAUUCUUUGAGCAACAGAGGAUUGAGCAUCA
B10: 32955150_32955270_2354_CDS_ENSG00000060749_ENST00000399302|human|control|control (ssRNA)
RNA: GGGAGUUCUACAGUCCGACGAUCUUCCUGGACCUUGGACUCAUGCACCUUAAGUAUGAGAGGAUGUUGCUGCUUUAAGUCUUUAGUAUUCAACCUUAUUUGUGGAGUCUGUAUUAAAUUAGUUGAGUUCUUAAGAUCAAGGGUCAACAGAGGAUUGAGCAUCA
B11: chr1:66461122:66461123:+_ENSMUSG00000015222_ENSMUST00000114013|mus_mus|motif|central (ssRNA)
RNA: GGGAGUUCUACAGUCCGACGAUCUGGUGAUGGGAGAGGGACUGUGUACUUGUUGAACACACAGUAUCCCAUGUCUUCAAGUUGACGGUCUGGUUUUACAGUGACUGGGCUUUCAUCAGCGACAGGUGGCAAACUGGUACUACUCAACAGAGGAUUGAGCAUCA
B12: chr4:41607924:41607925:+_ENSG00000064042_ENST00000508501|hu_hu|FALSE|FALSE (ssRNA)
RNA: GGGAGUUCUACAGUCCGACGAUCCGUUCCGCUGUAGGAUGUGCAGCUGUUUGCUGCUUUUCCCAGCCAGUAAAUGGUAACUAAUACAUUUUUCAGCUUCCUACUAUAAUCAAGGCUCUUGACUGUUACUCUGUUGGAUGUAUCCAACAGAGGAUUGAGCAUCA
B13: 21121154_21121371_2886_CDS_ENSG00000141458_ENST00000269228|human|control|control (ssRNA)
RNA: GGGAGUUCUACAGUCCGACGAUCGAUGUCUAGCCGAUUUUUCUCUUGACGUUUAAUGUCUAACCCCAAGAGACUCACGAAACAGGUAAUCUGCAGAAGAAAGUCAAUGAAGACUGCCAAUCCCGCAAAGAGAGAGAAGGUGUGCAACAGAGGAUUGAGCAUCA
B14: chr4:34756745:34756746:-_ENSMUSG00000039967_ENSMUST00000047950|mus_hu|motif|central (ssRNA)
RNA: GGGAGUUCUACAGUCCGACGAUCUAUAUUUGGAUUUAUGACACUUUCCAUUGAGGACAACAAUGGAGUUGACACACUUGCGGAAUGAGCUGGAAAAAUGGGUGGCGAGACAUGCUGCAACUGGGCCGAACAAGCAGGAUUCCCCAACAGAGGAUUGAGCAUCA

Molecular target: T1, UNK ZnF1-3 (human, UniProt Q9C0B0 31-174)
T1 sequence: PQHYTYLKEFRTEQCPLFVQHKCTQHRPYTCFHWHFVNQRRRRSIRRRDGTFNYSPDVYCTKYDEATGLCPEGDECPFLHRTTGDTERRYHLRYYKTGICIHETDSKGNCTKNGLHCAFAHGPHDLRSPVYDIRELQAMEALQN
Assay: nsRBNS (natural sequence RNA bind-n-seq); RBNS binding buffer (assumed for nsRBNS): 25 mM Tris pH 7.5, 150 mM KCl, 3 mM MgCl2, 0.01% Triton X-100, 500 ug/ml BSA, 20 U/ml SUPERase-In, 4 C; UNK is unkempt and MSI1 is Musashi-1; names of the RNAs are library labels; protein concentration not given here; high values mean tight binding

Binder | binding signal
B1 | 1.49 enrichment R
B2 | 0.679 enrichment R
B3 | 0.804 enrichment R
B4 | 0.677 enrichment R
B5 | 1.01 enrichment R
B6 | 1.32 enrichment R
B7 | 0.61 enrichment R
B8 | 1.3 enrichment R
B9 | 0.549 enrichment R
B10 | 1.67 enrichment R
B11 | 0.666 enrichment R
B12 | 0.509 enrichment R
B13 | 1.06 enrichment R
B14 | 2.89 enrichment R
